Results as given in the BET-seq Pho4 binding data (Le et al. 2018).
The list shows a part of the results. These are noisy estimates, calculated here from bound and input reads.

target: T1, Pho4 (S. cerevisiae) (UniProt P07270); assay: relative binding free energy (BET-seq); higher = weaker binding; settings: reference: library average
T1 sequence: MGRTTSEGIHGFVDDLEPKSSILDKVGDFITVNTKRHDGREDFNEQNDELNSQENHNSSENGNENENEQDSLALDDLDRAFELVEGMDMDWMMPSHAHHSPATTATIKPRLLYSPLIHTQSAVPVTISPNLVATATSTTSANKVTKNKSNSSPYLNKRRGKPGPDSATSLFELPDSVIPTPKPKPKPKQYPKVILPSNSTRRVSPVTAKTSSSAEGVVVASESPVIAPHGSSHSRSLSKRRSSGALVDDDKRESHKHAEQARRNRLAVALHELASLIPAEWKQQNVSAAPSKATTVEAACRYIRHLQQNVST

Row | Sequence | relative binding free energy [kcal/mol]
1 | AGAGACACGTGGGTAA | 0.03
2 | TGTTACACGTGAGTGC | 0.1
3 | ACGTTCACGTGCTTGT | 0.18
4 | ATAGGCACGTGACGTT | -0.17
5 | ACATTCACGTGGTATT | 0.06
6 | AGTAGCACGTGTGATT | -0.05
7 | AAAAGCACGTGGGGTA | -0.17
8 | TGTTTCACGTGATGAG | 0.29
9 | ATAATCACGTGGTATA | 0.09
10 | GATTTCACGTGATTCG | 0.29
11 | TGTCGCACGTGTTGGA | -0.08
12 | GAAGGCACGTGGTGTC | -0.26
13 | TGATTCACGTGGGTGT | 0.16
14 | TAAGTCACGTGGTCAG | 0.06
15 | TTTAGCACGTGGTTTC | -0.1
16 | GTGTACACGTGATTAG | 0.39
17 | GTAGGCACGTGGTTCT | -0.06
18 | TGATTCACGTGGTTCT | 0.4
19 | CCGGGCACGTGGAGTG | -0.26
20 | GATTCCACGTGTGGAG | 0.36
21 | ACGGTCACGTGCTGTG | 0.11
22 | AGAGACACGTGGAGGG | -0.05
23 | GGGAGCACGTGGGCGA | -0.11
24 | TACAGCACGTGTTGGG | -0.04
25 | ATCAGCACGTGGAGGG | -0.22

Row | Sequence | relative binding free energy [kcal/mol]
26 | GGGCTCACGTGCGGTG | 0.29
27 | TGGGACACGTGGTTAT | -0.02
28 | GGTTGCACGTGGTGAT | 0.07
29 | GGTAACACGTGCTTTT | 0.07
30 | GGGTGCACGTGTAGTA | 0.09
31 | ATGTTCACGTGGTGGT | 0.2
32 | TAGTTCACGTGTTATC | 0.24
33 | TTGTCCACGTGCGTGG | -0.06
34 | TTGAGCACGTGCAGGG | -0.07
35 | TACGCCACGTGGGTTG | -0.19
36 | GAAGGCACGTGGCGTA | -0.11
37 | TATTCCACGTGTTTTA | 0.19
38 | GGGTTCACGTGATTCG | 0.47
39 | ATGGGCACGTGGGCGT | -0.21
40 | GGGTTCACGTGGGAAC | 0.37
41 | AGGGGCACGTGCAGTA | -0.16
42 | GGGTGCACGTGGTTTG | 0.07
43 | TTAAGCACGTGCTTAT | -0.26
44 | AATTACACGTGGGTTT | 0.07
45 | AGTTGCACGTGCGAGG | 0
46 | TTACACACGTGGTGTA | -0.09
47 | TATCACACGTGTTAGT | 0.03
48 | TAGTTCACGTGGTCGT | 0.1
49 | TGCGGCACGTGACGTT | -0.07
50 | GGTTTCACGTGTTTTG | 0.43

Row | Sequence | relative binding free energy [kcal/mol]
51 | AGCGACACGTGGGTGG | -0.17
52 | GTGTTCACGTGCATGA | 0.28
53 | ATTTGCACGTGATTGG | 0.2
54 | TGGGTCACGTGCGAGA | 0.07
55 | GTCGACACGTGGTTGT | 0.23
56 | TTAGTCACGTGGGGCC | -0.01
57 | AGAATCACGTGGGCTT | 0.1
58 | GAACGCACGTGGTGAG | 0.03
59 | AAGGACACGTGAGGCG | 0.27
60 | TGTGTCACGTGTAAGA | 0.06
61 | GGTGACACGTGGTCAT | 0.09
62 | AGGTGCACGTGCCTGG | -0.12
63 | TGTAGCACGTGTGGCA | -0.11
64 | GGGGTCACGTGAGTGG | 0.3
65 | ACTATCACGTGGTGGG | 0
66 | GGAATCACGTGAGGGG | 0.27
67 | GTACGCACGTGGTGTA | -0.14
68 | GGGATCACGTGTAATG | 0.24
69 | GTGCGCACGTGAGGTA | 0.19
70 | AAGGGCACGTGTGACT | -0.03
71 | CGTGGCACGTGGAGGA | -0.1
72 | GGGGACACGTGGAGTT | 0.16
73 | GTGGTCACGTGGTCGC | 0.21
74 | GTCTGCACGTGTGCTT | 0.12
75 | TTTTCCACGTGAATTG | 0.27

Row | Sequence | relative binding free energy [kcal/mol]
76 | ATAGTCACGTGAGAGT | 0.18
77 | GGGTACACGTGAGGTC | 0.34
78 | GTTTACACGTGATTCT | 0.35
79 | CGGAGCACGTGGCGGG | -0.21
80 | TGTGCCACGTGGTGAA | -0.1
81 | TGTTACACGTGGAGTG | 0.03
82 | ATGGACACGTGGATGG | 0.07
83 | CGAGTCACGTGTGTGC | 0.22
84 | ACTTGCACGTGGAGGA | 0.15
85 | AGGTTCACGTGTAAAA | 0.43
86 | AAGTGCACGTGGATCG | -0.02
87 | GGATTCACGTGATAGG | 0.36
88 | AGTCGCACGTGCGTGG | -0.16
89 | AAGGGCACGTGGATAA | -0.09
90 | AGTATCACGTGGAGGA | 0
91 | AATTGCACGTGGTCGA | -0.09
92 | CAGGTCACGTGTGTGG | 0.09
93 | GGGGGCACGTGGATAT | -0.04
94 | TGCGGCACGTGTGGTT | 0.13
95 | GATGCCACGTGGGTGA | -0.14
96 | AGATCCACGTGTGTGG | 0.1
97 | TGGGGCACGTGGACAT | -0.06
98 | TGTTGCACGTGCGATT | 0.13
99 | TGAAGCACGTGTAGTT | -0.03
100 | TTAATCACGTGTGACT | 0.11

Row | Sequence | relative binding free energy [kcal/mol]
101 | TGAGTCACGTGTGTAA | 0.09
102 | GTACTCACGTGTGGGT | 0.25
103 | ACGGTCACGTGGATGG | 0.13
104 | ATGAGCACGTGGAGTT | 0.04
105 | TCTAACACGTGTGTTA | 0
106 | GCATTCACGTGTTTTT | 0.25
107 | TCTTGCACGTGGAATT | 0.13
108 | GTTTCCACGTGGAAGT | 0.28
109 | CGGCGCACGTGGAGTG | -0.06
110 | GTGGGCACGTGTTGTC | -0.04
111 | CGTGGCACGTGAGAAG | 0.19
112 | GGCCGCACGTGGAGGT | 0.03
113 | GTTGTCACGTGTATTA | 0.21
114 | AGTGTCACGTGGAGTA | 0.06
115 | ATTTTCACGTGTTGAT | 0.35
116 | AGTAGCACGTGCTGAG | -0.15
117 | TAGGTCACGTGAGACG | 0.28
118 | ATGCACACGTGTGTGA | 0.04
119 | TTATCCACGTGTTGGA | 0.04
120 | GAATGCACGTGGGTGT | -0.08
121 | CTAGTCACGTGAAGGT | 0.26
122 | AAAGGCACGTGGGGTT | -0.2
123 | GATAGCACGTGTGAGG | 0.09
124 | TGTGCCACGTGGGTGC | -0.35
125 | GTAGGCACGTGGCAGT | -0.14

Row | Sequence | relative binding free energy [kcal/mol]
126 | TTTATCACGTGTAGCG | 0.28
127 | GATTCCACGTGGGTTA | 0
128 | GTACGCACGTGTTGGA | -0.07
129 | GGGTCCACGTGCGGTA | -0.02
130 | GAAGGCACGTGTGTTT | 0.07
131 | GTGTTCACGTGGATCA | 0.28
132 | CGTGGCACGTGTCCGG | -0.14
133 | TGATGCACGTGGCGGC | -0.07
134 | TGGAACACGTGTCTTT | 0.17
135 | TATGTCACGTGGTAGG | 0.04
136 | GGGTACACGTGGTAAG | -0.04
137 | CGGGTCACGTGGGGGC | -0.07
138 | TGGGTCACGTGAATAG | 0.29
139 | TTGATCACGTGGTGTT | 0.14
140 | CTTGGCACGTGCTTTT | -0.24
141 | TTTTGCACGTGAGCGC | 0.2
142 | TGTGACACGTGGGTGC | -0.06
143 | TTAGGCACGTGGGGTT | -0.16
144 | TTGGGCACGTGCGCGC | -0.3
145 | AATGGCACGTGGACGT | -0.22
146 | GCTTTCACGTGTTGTT | 0.4
